Data reported in the supplement of paper PMC9174493.
The list shows a part of the results. Single values of this set are uncertain. Values with irradiation are relative to irradiated vehicle.

Each compound was assayed on A549-Dual (assay: ISRE reporter (Lucia luciferase) activity, viability-corrected, relative to vehicle (fold change vs vehicle); higher = more activation of STING-IRF / NF-kB immune response reporter). Details: 3 µM; irradiation: none.

| Structure (SMILES) | ISRE reporter |
| --- | --- |
| O=c1[nH]c(=O)n(C2CC(O)C(CO)O2)cc1F (centres undefined) [Floxuridine] | 1.45 |
| CC1(C)CCC(CN2CCN(c3ccc(C(=O)NS(=O)(=O)c4ccc(NCC5CCOCC5)c([N+](=O)[O-])c4)c(Oc4cnc5[nH]ccc5c4)c3)CC2)=C(c2ccc(Cl)cc2)C1 [Venetoclax (ABT-199, GDC-0199)] | 0.645 |
| Cc1ccc(NC(=O)c2ccc(CN3CCN(C)CC3)cc2)cc1Nc1nc(-c2cccnc2)cs1 [Masitinib (AB1010)] | 0.959 |
| CCc1cc(/C(C)=N/OCc2ccc(C3CCCCC3)c(C(F)(F)F)c2)ccc1CN1CC(C(=O)O)C1 [BAF312 (Siponimod)] | 1.12 |
| CN(C)C(=O)COC(=O)Cc1ccc(OC(=O)c2ccc(NC(=N)N)cc2)cc1.CS(=O)(=O)O [Camostat Mesilate] | 0.903 |
| Nc1nc(=S)c2[nH]cnc2[nH]1 [Thioguanine] | 0.743 |
| OCC1OC(Oc2cc(O)cc(/C=C/c3ccc(O)cc3)c2)C(O)C(O)C1O (centres undefined) [Polydatin] | 1.19 |
| COc1cc(N2CCC(N3CCN(C)CC3)CC2)ccc1Nc1ncc(Cl)c(Nc2ccccc2P(C)(C)=O)n1 | 0.936 |
| Cc1cccn2c(=O)c(-c3nnn[n-]3)cnc12.[K+] [Pemirolast potassium] | 0.959 |
| Cc1cccc(N(C)C(=S)Oc2ccc3ccccc3c2)c1 [Tolnaftate] | 0.654 |

Same assay, conditions: 10 µM; irradiation: 8 Gy/4 fr

| Structure (SMILES) | ISRE reporter |
| --- | --- |
| C=CC(=O)Nc1cc(Nc2nccc(-c3cn(C)c4ccccc34)n2)c(OC)cc1N(C)CCN(C)C [Osimertinib (AZD9291)] | 1.41 |
| CC1CC2C3CCC4=CC(=O)C=CC4(C)C3(F)C(O)CC2(C)C1(O)C(=O)COP(=O)([O-])[O-].[Na+].[Na+] (centres undefined) [Dexamethasone Sodium Phosphate] | 0.0655 |
| O=C(O)CCCN1CCC(OC(c2ccc(Cl)cc2)c2ccccn2)CC1.O=S(=O)(O)c1ccccc1 (centres undefined) [Bepotastine Besilate] | 1.15 |
| CC(=O)OC(C)C(C)C(=O)OCC12C3CC4(C)C(=CCC5C6(C)CCC(OC7OC(C(=O)[O][Na])C(OC8OC(CO)C(O)C(O)C8O)C(O)C7OC7OCC(O)C(O)C7O)C(C)(CO)C6CCC54C)C1CC(C)(C)C(O3)C2O (centres undefined) [Sodium Aescinate] | 1.09 |
| Nc1nc(CC(=O)Nc2ccc(CCNCC(O)c3ccccc3)cc2)cs1 (centres undefined) [Mirabegron] | 1.1 |
| O=C1OC(OC(=O)c2cccnc2Nc2cccc(C(F)(F)F)c2)c2ccccc21 (centres undefined) [Talniflumate] | 0.659 |
| CN1C(C(=O)Nc2ccccn2)=C(O)c2sccc2S1(=O)=O [Tenoxicam] | 1.15 |
| CCC(=O)NS(=O)(=O)c1ccc(-c2c(-c3ccccc3)noc2C)cc1 [Parecoxib] | 0.837 |
| CNCC(O)C(O)C(O)C(O)CO.Cc1c(Nc2ncccc2C(=O)O)cccc1C(F)(F)F [Flunixin Meglumin] | 0.681 |
| Cc1cncc(CN2CCC(=C3c4ccc(Cl)cc4CCc4cccnc43)CC2)c1.O=C(O)/C=C/C(=O)O [Rupatadine Fumarate] | 0.285 |
| COC(=O)CC(O)(CCCC(C)(C)O)C(=O)OC1C(OC)=CC23CCCN2CCc2cc4c(cc2C13)OCO4 (centres undefined) [Homoharringtonine] | 0.0465 |
| CC(C(=O)[O-])c1ccc(CC2CCCC2=O)cc1.[Na+] (centres undefined) [Loxoprofen Sodium] | 0.8 |
| C=C1c2cccc(O)c2C(=O)C2=C(O)C3(O)C(=O)C(C(N)=O)=C(O)C(N(C)C)C3C(O)C12.Cl (centres undefined) [Methacycline HCl] | 0.326 |
| CC1CCC2(C(=O)OC3OC(COC4OC(CO)C(OC5OC(C)C(O)C(O)C5O)C(O)C4O)C(O)C(O)C3O)CCC3(C)C(=CCC4C5(C)CC(O)C(O)C(C)(CO)C5CCC43C)C2C1C (centres undefined) [Asiaticoside] | 0.945 |
| Nc1nc(F)nc2c1ncn2C1OC(CO)C(O)C1O (centres undefined) [Fludarabine] | 0.868 |
| O=NN(CCCl)C(=O)NC1CCCCC1 [Lomustine] | 0.903 |
| O=CC(O)C(O)C(O)C(O)COC1OC(CO)C(O)C(O)C1O (centres undefined) [Melibiose] | 1.25 |
| O.S=c1nc[nH]c2nc[nH]c12 [6-Mercaptopurine (6-MP) Monohydrate] | 0.784 |
| CC(C(=O)O)c1cccc(C(=O)c2ccccc2)c1 (centres undefined) [Ketoprofen] | 0.743 |
| CNC1CCC(c2ccc(Cl)c(Cl)c2)c2ccccc21.Cl (centres undefined) [Sertraline HCl] | 0.677 |

| Structure (SMILES) | ISRE reporter |
| --- | --- |
| CC1(C)OC2CC3C4CCC5=CC(=O)CCC5(C)C4(F)C(O)CC3(C)C2(C(=O)CCl)O1 (centres undefined) [Halcinonide] | 0.0692 |
| CC(=O)OC12COC1CC(O)C1(C)C(=O)C(O)C3=C(C)C(OC(=O)C(O)C(NC(=O)OC(C)(C)C)c4ccccc4)CC(O)(C(OC(=O)c4ccccc4)C21)C3(C)C (centres undefined) [Docetaxel] | 1.31 |
| CCN(CC)Cc1cc(Nc2ccnc3cc(Cl)ccc23)ccc1O.Cl.Cl [Amodiaquine hydrochloride] | 1.45 |
| Cc1c(N)c(=O)n(-c2ccccc2)n1C [4-Aminoantipyrine] | 0.793 |
| Cn1cnc2c(F)c(Nc3ccc(Br)cc3F)c(C(=O)NOCCO)cc21 | 0.285 |
| CC1(C)C2CCC1(C)C(O)C2 (centres undefined) [Borneol] | 1.07 |
| CC1CC2C3CCC4=CC(=O)C=CC4(C)C3(Cl)C(O)CC2(C)C1(OC(=O)c1ccco1)C(=O)CCl (centres undefined) [Mometasone furoate] | 0.0436 |
| CCN(CC)CCCC(C)Nc1ccnc2cc(Cl)ccc12.O=P(O)(O)O.O=P(O)(O)O (centres undefined) [Chloroquine Phosphate] | 1.32 |
| COc1cc2c(cc1Cc1cccc(Cl)c1F)c(=O)c(C(=O)O)cn2C(CO)C(C)C (centres undefined) [Elvitegravir (GS-9137, JTK-303)] | 0.939 |
| O=c1[nH]c(=O)n(C2CC(O)C(CO)O2)cc1F (centres undefined) [Floxuridine] | 0.694 |
| CC1(C)CCC(CN2CCN(c3ccc(C(=O)NS(=O)(=O)c4ccc(NCC5CCOCC5)c([N+](=O)[O-])c4)c(Oc4cnc5[nH]ccc5c4)c3)CC2)=C(c2ccc(Cl)cc2)C1 [Venetoclax (ABT-199, GDC-0199)] | 0.364 |
| Cc1ccc(NC(=O)c2ccc(CN3CCN(C)CC3)cc2)cc1Nc1nc(-c2cccnc2)cs1 [Masitinib (AB1010)] | 0.772 |
| CCc1cc(/C(C)=N/OCc2ccc(C3CCCCC3)c(C(F)(F)F)c2)ccc1CN1CC(C(=O)O)C1 [BAF312 (Siponimod)] | 0.398 |
| CN(C)C(=O)COC(=O)Cc1ccc(OC(=O)c2ccc(NC(=N)N)cc2)cc1.CS(=O)(=O)O [Camostat Mesilate] | 0.603 |
| Nc1nc(=S)c2[nH]cnc2[nH]1 [Thioguanine] | 0.51 |
| OCC1OC(Oc2cc(O)cc(/C=C/c3ccc(O)cc3)c2)C(O)C(O)C1O (centres undefined) [Polydatin] | 1.41 |
| COc1cc(N2CCC(N3CCN(C)CC3)CC2)ccc1Nc1ncc(Cl)c(Nc2ccccc2P(C)(C)=O)n1 | 1.08 |
| Cc1cccn2c(=O)c(-c3nnn[n-]3)cnc12.[K+] [Pemirolast potassium] | 1.13 |
| Cc1cccc(N(C)C(=S)Oc2ccc3ccccc3c2)c1 [Tolnaftate] | 0.85 |
